Consider 40 sequences from the supplement of paper PMC7826260.

This is one part of the list. Each Rep nickase domain was tested in vitro on the same pool of single strands (3 µM enzyme, 1 h, 37 °C); shown is the middle of each 90-letter strand. Numbers give uncut DNA relative to the enzyme-free pool, as log2; strong cutting gives strongly negative numbers. There is no active / inactive call. Counts are relative to all reads; uncut strands gain when others are lost, and binding without cutting may add a little.

The test system of the assay is T1, Rep nickase domain of tomato golden mosaic virus.
T1 sequence (Rep 1-124, printed without the tag): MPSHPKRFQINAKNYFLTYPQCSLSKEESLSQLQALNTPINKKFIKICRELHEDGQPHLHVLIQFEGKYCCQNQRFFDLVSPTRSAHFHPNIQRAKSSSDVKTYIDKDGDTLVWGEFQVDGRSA
The assay is described as follows: uncleaved DNA left, log2 of reads against the no-enzyme library (log2 ratio); higher = less cleavage (more negative = more Rep cleavage of the k-mer); sequences stand for … in CTCGTCCG…ACCGGAGA
The protocol: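 A pool of 90-nt single-stranded DNAs with seven random bases just before the constant AC of the nick site (name = the seven bases) was cut by 3 µM recombinant His6-SUMO-tagged Rep nickase domain (300 nM DNA, 50 mM HEPES pH 8.0, 50 mM NaCl, 1 mM MnCl2, 1 h, 37 °C, three replicates). Uncut DNA was amplified and sequenced.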
As for CGCAGAC, the “uncleaved DNA left (log2)” value is -0.00705. As to CTCTAAA, the “uncleaved DNA left (log2)” value turned out to be 0.0131. As to AGACGTC, the “uncleaved DNA left (log2)” value was -0.0861. For the sequence ACAAGTT, the “uncleaved DNA left (log2)” value is -0.0272.

In the case of CGCCGAT, the “uncleaved DNA left (log2)” value is -0.00125. On to CGAACAC, for which the “uncleaved DNA left (log2)” value was -0.082. GTTTCTT: the “uncleaved DNA left (log2)” value was found to be 0.0916. For CCCCTGA, the “uncleaved DNA left (log2)” value is -0.0326. Turning to TGCGGAA, the “uncleaved DNA left (log2)” value is -0.0112.

GGGGCCT: the “uncleaved DNA left (log2)” value is 0.155. As for ATTGGGG, the “uncleaved DNA left (log2)” value turned out to be 0.189. TGATGAT: the “uncleaved DNA left (log2)” value is -0.0299.

With CTCAGGG, the “uncleaved DNA left (log2)” value was -0.0581.

Regarding AATTCTT, the “uncleaved DNA left (log2)” value is -0.553.

For TGCGATA, the “uncleaved DNA left (log2)” value worked out at 0.102. On to CATAGTA, for which the “uncleaved DNA left (log2)” value was -0.00165. For the sequence TCTCACC, the “uncleaved DNA left (log2)” value is -0.197.

For TTGGTCT, the “uncleaved DNA left (log2)” value was 0.0438. Turning to CAATACG, the “uncleaved DNA left (log2)” value was -0.0829. On to GCGACAG, for which the “uncleaved DNA left (log2)” value was -0.0222. With GATTAGA, the “uncleaved DNA left (log2)” value is -0.0372. In the case of GACCTCT, the “uncleaved DNA left (log2)” value turned out to be 0.14.

As for CAGATTC, the “uncleaved DNA left (log2)” value stood at 0.00624. As for GTTAGTA, the “uncleaved DNA left (log2)” value was 0.191. The result for CGGAAGA reads 0.013; that for CGCCGGT, 0.0104; that for AAGCGTA, 0.0921. Turning to CTGGTAC, the “uncleaved DNA left (log2)” value was -0.0268. On to TAAGGTC, for which the “uncleaved DNA left (log2)” value turned out to be 0.0103.

For TCCCCTC, the “uncleaved DNA left (log2)” value was -0.0027.

As for GTAGGGA, the “uncleaved DNA left (log2)” value came out at 0.127.

On to CAATGAA, for which the “uncleaved DNA left (log2)” value was -0.0289. With TTATCGT, the “uncleaved DNA left (log2)” value was -0.00971. As for AATGACT, the “uncleaved DNA left (log2)” value is 0.0502. Regarding CTGCTTG, the “uncleaved DNA left (log2)” value was 0.127. For the sequence ACTGACT, the “uncleaved DNA left (log2)” value stood at 0.166. As to CGGTTAA, the “uncleaved DNA left (log2)” value was 0.0464. For the sequence AGTCCCG, the “uncleaved DNA left (log2)” value is -0.0149. The result for GGTCAAT reads 0.0999; that for CAGTGCG, -0.162.
